Columns and labels:
[1] = system: bone marrow cells of Crl:CD(SD) rats; assay: Mammalian erythrocyte micronucleus test
liver of Crl:CD(SD) rats = assay: In vivo single cell gel electrophoresis (comet) assay in liver

## CN[C@]1(c2ccccc2Cl)CCCCC1=O [esketamine, (2S)-2-(2-Chlorophenyl)-2-(methylamino) cyclohexanone]
[1]; female rats, any dose level
  proportion of polychromatic erythrocytes vs vehicle control: no statistically significant decreases
[1]; female rats, any dose level (12.5, 25, 50 mg/kg/day)
  frequency of micronucleated polychromatic erythrocytes vs vehicle control: No statistically significant increases
[1]; male or female rats, oral gavage
  micronucleated polychromatic erythrocytes or bone marrow cell toxicity, conclusion: has not shown any evidence
[1]; male rats, 37.5 and 75 mg/kg/day, p<0.05, within historical range, not considered biologically relevant
  proportion of polychromatic erythrocytes vs vehicle control: Statistically significant decreases
[1]; male rats, any dose level (18.75, 37.5, 75 mg/kg/day)
  frequency of micronucleated polychromatic erythrocytes vs vehicle control: No statistically significant increases
Liver of Crl:CD(SD) rats; female rats
  no observed genotoxic effect level for comet tail intensity in liver: 12.5 mg/kg/day
Liver of Crl:CD(SD) rats; male rats
  no observed genotoxic effect level for comet tail intensity in liver: 37.50 mg/kg/day
